Experimental data published in ChEMBL document CHEMBL4888484, “Replenishing the malaria drug discovery pipeline: Screening and hit evaluation of the MMV Hit Generation Library 1 (HGL1) against asexual blood stage Plasmodium falciparum ,using a nano luciferase reporter read-out” (2022).
Screen size: about 150,000 compounds; about 540 (0.36%) showed an effect of 50% or more. The list shows a part of the results.

System: Plasmodium falciparum
Assay: Primary screen in NF54 nanoGlo assay, in single point, at 2uM, 72h; a lower Z score goes with more inhibition
Assay type: functional, Erythrocyte
Conditions: timepoint 72 hour

Question: How did the “% Inhibition” value turn out when COCc1nc(CCc2ccncc2)n(C(C)(C)C)n1 was run?
Answer: The value was -8%.

Question: What about the Z score of the same molecule?
Answer: The Z score was 1.16.

Question: With C[C@@H](COc1ccccc1)N1CCC(Oc2cccc(C(=O)N3CCCC3)c2)CC1 as the molecule, how does the “% Inhibition” value read?
Answer: Its value is 7%.

Question: And the Z score?
Answer: Its Z score is -0.75.

Question: What does the source list for O=C1C[C@H](C(=O)N2CCC(CO)(Cc3ccccc3)CC2)CN1Cc1ccncc1?
Answer: % Inhibition: 2%; Z score: -0.37

Question: With C[C@@H](C(=O)NC1CCCC1)N(C)Cc1n[nH]c2c1CCCCC2 as the molecule, how does the “% Inhibition” value read?
Answer: The value was -1%.

Question: What about the Z score of the same molecule?
Answer: Its Z score is 0.24.

Question: How did the “% Inhibition” value turn out when O=c1nc2n(nc1-c1ccc(F)cc1)C1(CCCC1)Nc1ccccc1-2 was run?
Answer: Its value is -9%.

Question: And the Z score?
Answer: Its Z score is 0.98.

Question: How did the “% Inhibition” value turn out when Cc1ncc(C(=O)NCCc2csc(N3CCCC3)n2)c(C(C)C)n1 was run?
Answer: The value was -12%.

Question: And the Z score?
Answer: The Z score was 1.69.

Question: For CCN(CC)C(=O)N1CCN(C(=O)c2ccncc2Cl)CC1, which “% Inhibition” value is on record?
Answer: The value was 0%.

Question: And the Z score?
Answer: The Z score was 0.

Question: With Cc1ccc(-c2nn(-c3ccccc3)cc2C(=O)N2CCCCC2)o1 as the molecule, how does the “% Inhibition” value read?
Answer: The value was -17%.

Question: And the Z score?
Answer: Its Z score is 2.17.

Question: What does the source list for Cc1ccc(N2CCC(CNC(=O)c3cccnc3)CC2)nn1?
Answer: % Inhibition: -9%; Z score: 1.18

Question: Cc1noc(C)c1CN(C)C(=O)c1ccc2[nH]cnc2c1 was tested. Which “% Inhibition” value did it give?
Answer: The value was -9%.

Question: What about the Z score of the same molecule?
Answer: The Z score was 1.28.

Question: What does the source list for CC(C)C(=O)N(CCCN1CCCC1)[C@H]1CCCN(C(=O)c2cn(C)cn2)C1?
Answer: % Inhibition: -4%; Z score: 0.66

Question: COC(=O)c1ccc(NC(=O)C[C@@H]2NC(=O)N(Cc3ccccc3Cl)C2=O)cc1 was tested. Which “% Inhibition” value did it give?
Answer: The value was -11%.

Question: What about the Z score of the same molecule?
Answer: The Z score was 1.59.

Question: How did the “% Inhibition” value turn out when O=c1c2ccccc2ncn1Cc1nnc(-c2ccccc2)o1 was run?
Answer: The value was -11%.

Question: And the Z score?
Answer: The Z score was 1.06.

Question: What does the source list for Cn1cnc2c1CCN(C(=O)c1cc(OC(F)F)n(C)n1)C21CCOCC1?
Answer: % Inhibition: -11%; Z score: 1.88

Question: CCO[C@H]1COC[C@@H]1NC(=O)CCn1ccnc1 was tested. Which “% Inhibition” value did it give?
Answer: The value was 5%.

Question: What about the Z score of the same molecule?
Answer: The Z score was -0.93.

Question: Which “% Inhibition” value does the source give for CCC(=O)N1CCC2(CC1)C[C@@H](Cc1ccccc1)CCO2 here?
Answer: The value was 9%.

Question: And the Z score?
Answer: Its Z score is -0.97.

Question: Which “% Inhibition” value does the source give for Cc1ccc(N(C)C(=O)C2CC=CC2)cc1N(C)C(=O)C1CC=CC1 here?
Answer: The value was -10%.

Question: What about the Z score of the same molecule?
Answer: Its Z score is 1.19.

Question: How did the “% Inhibition” value turn out when COc1ccc(NC(=O)Nc2ccc3nn[nH]c(=O)c3c2)cc1 was run?
Answer: Its value is -4%.

Question: What about the Z score of the same molecule?
Answer: The Z score was 0.5.

Question: Which results are given for CC(C)CCn1c(=O)c2sccc2n(CC(=O)N(C)c2ccccc2)c1=O?
Answer: % Inhibition: 36%; Z score: -1.24

Question: How did the “% Inhibition” value turn out when NC(=O)[C@@H]1CN(CCNC(=O)OCC(F)(F)F)CCO1 was run?
Answer: The value was -6%.

Question: And the Z score?
Answer: Its Z score is 1.19.

Question: What does the source list for Cc1cc(C(=O)NC[C@@](C)(O)CCc2ccccc2)no1?
Answer: % Inhibition: -10%; Z score: 1.75

Question: How did the “% Inhibition” value turn out when CC[C@H]1CN(C(=O)CN2CCCCCCC2)CCO1 was run?
Answer: Its value is -13%.

Question: And the Z score?
Answer: The Z score was 1.67.

Question: With C[C@H]1CN(Cc2csnn2)c2cccc(F)c2O1 as the molecule, how does the “% Inhibition” value read?
Answer: The value was -14%.

Question: And the Z score?
Answer: Its Z score is 1.57.

Question: With CC(C)c1cnc(NCc2ccncc2)s1 as the molecule, how does the “% Inhibition” value read?
Answer: The value was -16%.

Question: What about the Z score of the same molecule?
Answer: The Z score was 1.58.

Question: Which “% Inhibition” value does the source give for O=c1[nH]ccnc1N1CCN(Cc2nc(-c3cccnc3)no2)CC1 here?
Answer: The value was 2%.

Question: What about the Z score of the same molecule?
Answer: Its Z score is -0.32.

Question: With O=C(NC(c1cccs1)C1CC1)N[C@@H]1Cc2ccccc2[C@H]1O (some centres undefined) as the molecule, how does the “% Inhibition” value read?
Answer: The value was -3%.

Question: What about the Z score of the same molecule?
Answer: The Z score was 0.31.

Question: With CCCc1noc(CN(C)C(=O)c2n[nH]c3c2COCC3)n1 as the molecule, how does the “% Inhibition” value read?
Answer: Its value is 1%.

Question: And the Z score?
Answer: Its Z score is -0.14.

Question: What does the source list for CCc1cc(C(=O)N2CCC(c3nc4ccccc4s3)CC2)sc1-c1ccccc1?
Answer: % Inhibition: 0%; Z score: 0.04

Question: With N[C@@H](CC1CCCCC1)C(=O)N1CCCn2cncc2C1 as the molecule, how does the “% Inhibition” value read?
Answer: The value was 1%.

Question: What about the Z score of the same molecule?
Answer: The Z score was -0.18.

Question: What does the source list for CS(=O)(=O)N1CCN(c2ccc(N3CCOCC3)nn2)CC1?
Answer: % Inhibition: -13%; Z score: 2.07

Question: For CCCCN(C)C[C@@H]1OC[C@H](NC(=O)c2ccccc2)[C@H]1O, which “% Inhibition” value is on record?
Answer: The value was 2%.

Question: What about the Z score of the same molecule?
Answer: Its Z score is -0.39.

Question: Which “% Inhibition” value does the source give for C#CC[C@H](C)OC(=O)c1c(C)nn(C)c1OC here?
Answer: The value was 3%.

Question: What about the Z score of the same molecule?
Answer: Its Z score is -0.46.

Question: Cc1ccc(CNC(=O)[C@H]2CCCN(c3ccnc(-c4ccc(C)cc4)n3)C2)cc1 was tested. Which “% Inhibition” value did it give?
Answer: Its value is -10%.

Question: And the Z score?
Answer: The Z score was 1.15.

Question: With OC[C@@]1(CCc2ccccc2)CCCN(Cc2nc3ccccc3[nH]2)C1 as the molecule, how does the “% Inhibition” value read?
Answer: Its value is -10%.

Question: What about the Z score of the same molecule?
Answer: Its Z score is 1.26.

Question: What does the source list for Cc1ccc(-c2nc3cccnc3s2)cc1NC(=O)CCCc1ccccc1?
Answer: % Inhibition: -8%; Z score: 1.62

Question: How did the “% Inhibition” value turn out when COCCn1nc(C(=O)NCc2cc(C)nn2C)c2c1CCOC2 was run?
Answer: Its value is 7%.

Question: And the Z score?
Answer: The Z score was -1.03.

Question: With COCc1nc([C@H]2C[C@H](NC(=O)c3c[nH]c(=O)c(Cl)c3)C2)cc(=O)[nH]1 as the molecule, how does the “% Inhibition” value read?
Answer: The value was -9%.

Question: And the Z score?
Answer: The Z score was 1.51.

Question: CC(C)c1nccc(N2CCOC[C@@H](C3CCC3)C2)n1 was tested. Which “% Inhibition” value did it give?
Answer: Its value is -14%.

Question: And the Z score?
Answer: The Z score was 1.86.

Question: For COc1ccc(C(=O)NC2CCN(Cc3ccccc3)CC2)cc1S(=O)(=O)N1CC(C)CC(C)C1 (centres undefined), which “% Inhibition” value is on record?
Answer: Its value is 11%.

Question: And the Z score?
Answer: The Z score was -0.94.

Question: What does the source list for Cc1nnccc1NC(=O)NCC1(C)CCCC1?
Answer: % Inhibition: -18%; Z score: 2.8

Question: For COc1c(F)c(F)c(S(=O)(=O)Nc2cccc3c2CCCC3)c(F)c1F, which “% Inhibition” value is on record?
Answer: Its value is 2%.

Question: And the Z score?
Answer: The Z score was -0.38.

Question: Which results are given for O=C(O)Cc1csc(Nc2cccc3ncccc23)n1?
Answer: % Inhibition: 9%; Z score: -1.36
